Laboratory results published in PubChem BioAssay AID1345082 (National Center for Advancing Translational Sciences (NCATS), 2018).
The campaign covered roughly 94,000 compounds. About 4,000 (4.3%) were called active. The inconclusive results got no clear call from the source; some entries with a clear call stand among them for comparison. Calls follow the shape of the dose curve; as a rule, active = well fitted inhibition curve with a large enough effect; inconclusive = small, poorly fitted or top-dose-only effect; inactive = no such curve, though single readings can be large or run the other way. Where the call is inconclusive, the potency comes from a doubtful curve fit.

Assay: Cytotoxic Profiling in NIH 3T3 Cell Line of Diverse Libraries Using Quantitative High-Throughput Screening; also: nearly all actives have a fitted effect of over 55% in size
Settings: NIH 3T3 viability, CellTiter-Glo ATP luminescence, 48-72 h; series mostly up to 96.7 µM
How it was run: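 Mouse fibroblast NIH 3T3 cells, 400 per well, received compound via pintool and were incubated for 48 or 72 hr prior to CellTiter-Glo ATP luminescence measurement.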
Potency is read from the fitted curve at half-maximal effect; tags tell the direction and shape of the fitted curve.

| Compound | Potency |
| --- | --- |
| Cc1ccccc1S(=O)(=O)NCC1Cn2cccc2C(=O)N1C (stereo unspecified) | inconclusive: 44.7 µM [inhibitor, partial curve, poor fit] |
| O=C(NC1CCN(c2cc(-c3ccc(Cl)cc3)[nH]n2)C1)c1ccc(F)c(F)c1 (stereo unspecified) | inconclusive: 50.1 µM [inhibitor, partial curve, poor fit] |
| COc1cc(OC)c(CNC(=O)c2c(C)noc2-c2ccc(OC(F)(F)F)cc2)c(OC)c1 | inconclusive: 44.7 µM [inhibitor, partial curve, poor fit] |
| O=C([C@@H]1CCCN1c1nccc(Nc2ccccc2Cl)n1)N1CCCC1 | inconclusive: 44.7 µM [inhibitor, partial curve, poor fit] |
| Cc1cccc(NC(=O)C2CCN(C(=O)c3ncn4c3COC(c3ccc(F)cc3)C4)CC2)c1C (stereo unspecified) | inactive |
| CC1=C[C@@H](CNC(=O)C2CCCCC2)[C@H](C(C)C)C[C@H]1Cc1nc2c(C)cccc2[nH]1 | active: 25.1 µM |
| COCCn1ncc(N2CCCC(CC(=O)Nc3ccc(C)cc3C)C2)cc1=O (stereo unspecified) | inconclusive: 70.8 µM [inhibitor, single point] |
| CCCNC(=O)N1CCC(O)(c2csc(CN3CCc4ccccc4C3)n2)CC1 | inactive |
| Cc1nc(-c2ccccc2)n(CC(=O)Nc2ccc(F)cc2)c(=O)c1CCO | inconclusive: 44.7 µM [inhibitor, partial curve, poor fit] |
| O=C(NCCc1ccc(Cl)cc1)C1CCN(c2ccnc3ccnn23)CC1 | inconclusive: 63.1 µM [inhibitor, partial curve, poor fit] |
| O=C(NC1CC1)C1CC(=O)N(c2n[nH]c3cccc(F)c23)C1 (stereo unspecified) | inconclusive: 25.1 µM [inhibitor, single point] |
| O=C(N[C@H]1CCN2C(=O)c3cc(-c4ccc(F)cc4F)ccc3NC(=O)[C@H]12)c1cccc(F)c1 | inconclusive: 79.4 µM [inhibitor, partial curve] |
| O=C(c1cccc(Cl)c1)N1CCCC(n2cc(-c3nc(-c4ccccc4)no3)nn2)C1 (stereo unspecified) | inconclusive: 44.7 µM [inhibitor, partial curve] |
| CSc1ccc(CNC(=O)c2cc3c(N(C)Cc4ccccc4)nc(C)cn3n2)cc1 | inconclusive: 22.4 µM [inhibitor, full curve] |
| COc1cccc(CNC(=O)c2cc(-c3ccc(Cl)cc3Cl)nc3c2cnn3C)c1 | inconclusive: 28.2 µM [inhibitor, full curve, poor fit] |
| CC(C)n1cc(CN2CCOCCNC(=O)CC2)c2ccccc21 | inconclusive: 50.1 µM [inhibitor, partial curve, poor fit] |
